Source: PMC4336329 (PLoS ONE, 2015)
The whole screen tested about 310,000 compounds, of which about 14,000 (4.5%) showed an effect of 50% or more. Effects have a minus sign here. The list shows a part of the results.

Molecular target: human ether-à-go-go-related gene (hERG) potassium channel (human, UniProt Q12809)
Test: primary screen, population patch clamp on CHO cells stably expressing hERG
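Also: peak tail current of the secondary pulse compared with the same well before compound.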

Chain of human ether-à-go-go-related gene (hERG) potassium channel (Q12809 whole entry, looked up): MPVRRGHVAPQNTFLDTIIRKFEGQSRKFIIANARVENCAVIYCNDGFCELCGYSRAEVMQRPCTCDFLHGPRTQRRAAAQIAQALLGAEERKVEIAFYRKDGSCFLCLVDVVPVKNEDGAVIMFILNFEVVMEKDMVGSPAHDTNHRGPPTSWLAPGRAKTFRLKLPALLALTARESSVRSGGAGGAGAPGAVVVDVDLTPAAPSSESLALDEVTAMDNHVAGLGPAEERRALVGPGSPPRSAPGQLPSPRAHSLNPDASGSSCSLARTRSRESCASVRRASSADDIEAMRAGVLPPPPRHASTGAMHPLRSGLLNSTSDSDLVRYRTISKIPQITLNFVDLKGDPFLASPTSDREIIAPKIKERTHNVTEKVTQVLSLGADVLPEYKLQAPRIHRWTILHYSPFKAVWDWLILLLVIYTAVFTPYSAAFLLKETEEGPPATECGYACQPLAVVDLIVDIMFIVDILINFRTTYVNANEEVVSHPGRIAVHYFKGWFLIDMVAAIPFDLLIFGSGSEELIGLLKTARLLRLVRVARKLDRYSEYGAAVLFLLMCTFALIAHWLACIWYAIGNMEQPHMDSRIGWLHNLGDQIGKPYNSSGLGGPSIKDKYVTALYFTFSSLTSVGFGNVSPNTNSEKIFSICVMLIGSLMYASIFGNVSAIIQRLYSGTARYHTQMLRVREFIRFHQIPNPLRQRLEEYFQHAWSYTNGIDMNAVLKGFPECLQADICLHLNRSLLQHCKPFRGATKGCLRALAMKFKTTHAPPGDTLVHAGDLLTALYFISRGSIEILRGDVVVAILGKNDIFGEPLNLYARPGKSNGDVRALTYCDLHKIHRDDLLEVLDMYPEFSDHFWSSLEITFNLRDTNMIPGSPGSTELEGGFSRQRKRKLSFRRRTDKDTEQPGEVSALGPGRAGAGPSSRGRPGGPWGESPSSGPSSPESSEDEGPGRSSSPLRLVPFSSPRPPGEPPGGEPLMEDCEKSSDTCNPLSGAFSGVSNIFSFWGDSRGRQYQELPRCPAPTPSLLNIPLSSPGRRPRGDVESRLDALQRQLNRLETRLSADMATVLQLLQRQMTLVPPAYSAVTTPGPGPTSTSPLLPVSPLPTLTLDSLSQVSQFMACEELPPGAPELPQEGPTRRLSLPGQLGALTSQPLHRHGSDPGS

Row | Compound | hERG current change (%, negative = inhibition) at 10uM [%]
1 | CCOc1ccccc1NC(=O)CCNC(=O)Cn1ccc2ccccc2c1=O | 6.08
2 | COc1ccc(NS(=O)(=O)c2cccc3cccnc23)cc1Cl | 1.72
3 | CN(c1cccnc1)c1ncnc2[nH]ncc12 | 3.57
4 | COc1cccc(OC)c1C(=O)NNC(=O)c1cccnc1 | 19.6
5 | CCN(c1ccccc1)S(=O)(=O)c1ccc(Cl)c(NC(=O)CN2CCN(C)CC2)c1 | -59.2
6 | NNC(=O)c1nc[nH]c1C(=O)Nc1ccccc1 | 24.1
7 | COc1ccc(NC(=O)CCN2CCCC2)c(OC)c1 | 7.46
8 | COc1ccc(OC)c(C(=O)N2CCC(n3nccc3NC(=O)CC(C)C)CC2)c1 | 9.25
9 | C=C(C)c1cccc(C(C)(C)NC(=O)Nc2nnc(C(C)C)s2)c1 | -7.97
10 | COc1cc(OC)cc(C(=O)NN2CCOCC2)c1 | 0.542
11 | CN(C)C(=O)c1ccc(NC(=O)CN2CCc3cc4c(cc3C2)OCCCO4)cc1 | 5.8
12 | CCCN1C(=O)SC(CC(=O)Nc2ccc(C)cc2)C1=O (centres unmarked) | -6.12
13 | CN(Cc1cc(=O)n2ccsc2n1)C1CCCCC1 | -7.56
14 | Cc1cccc(NC(=O)Cn2c(=O)oc3cc(S(=O)(=O)N4CCCC4)ccc32)n1 | 2.33
15 | COCCNC(=O)C(c1ccco1)N(C(=O)Cn1nnc2ccccc21)c1ccc(C)cc1C (centres unmarked) | 0.494
16 | CC(=O)Oc1ccccc1/C=C1\CCOC1=O | 8.5
17 | COCCCn1c(-c2ccsc2)nc2c1c(=O)[nH]c(=O)n2Cc1ccccc1 | -1.73
18 | Cc1ccnc(N2C(=O)c3ccc([N+](=O)[O-])cc3C2=O)c1 | 13
19 | CCCCNC(=O)Nc1ccccc1Br | 1.95
20 | Cc1ccc(S(=O)(=O)NCC(=O)N2CCN(c3ccc(F)cc3)CC2)cc1 | -10.2
21 | COCCN(C(=O)CSc1nc2ccc(OC)cc2[nH]1)c1c(N)n(Cc2ccccc2)c(=O)[nH]c1=O | 11.6
22 | COc1ccc(CN(CC(=O)NC2CCCC2)C(=O)CCC(=O)Nc2cc(C)on2)cc1 | -8.45

Row | Compound | hERG current change (%, negative = inhibition) at 10uM [%]
23 | COc1ccc(OCCSc2nnc(CC(=O)Nc3cccc(Cl)c3Cl)n2C)cc1 | 16.7
24 | COCCn1c(SCC(=O)N2CCCc3ccccc32)nc2cccnc21 | -16.5
25 | CC(=O)Nc1ccc(OCCOc2ccc(/C=C3/C(=N)N4C=CSC4=NC3=O)cc2)cc1 | -4.84
26 | CCCOc1ccccc1/C=C1\SC(N)=NC1=O | 9.65
27 | O=C(c1cccnc1)N1CCN(S(=O)(=O)c2ccc(S(=O)(=O)N3CCCC3)cc2)CC1 | 9.65
28 | O=C(CSCc1ccccc1)Nc1cccc(C(=O)Nc2ccccc2C(=O)O)c1 | 1.8
29 | CC(=O)Nc1ccc(CN2CCCC(CCC(=O)NCc3ccccc3F)C2)cc1 (centres unmarked) | -8.19
30 | CCCCn1c(N)c(N(CC(C)C)C(=O)c2cnccn2)c(=O)[nH]c1=O | 9.45
31 | O=C(NCCc1ccc(Cl)cc1)Nc1ccc(Cl)cc1 | 15.9
32 | CCOP(=O)(OCC)C(C#N)=C1SCN(c2ccccc2)CS1 | 13.2
33 | O=C(Nc1nc2c(Cl)c(Cl)ccc2s1)C1CC1 | 3.25
34 | CCCN(CCC)S(=O)(=O)c1ccc(C(=O)OCCN2C(=O)c3cccc4c(N5CCOCC5)ccc(c34)C2=O)cc1 | 0.513
35 | Nc1ccc(C(=O)OCC(=O)Nc2ccc3c(c2)OCO3)cc1[N+](=O)[O-] | 5.04
36 | CCN(CC)CC(=O)c1ccc(-c2ccccc2)cc1 | -20.7
37 | COC(=O)c1ccc(Cn2c(CN3CCOCC3)nc3ccccc3c2=O)o1 | -5.56
38 | COc1ccccc1Cn1nnc2c(=O)[nH]c(C3CCN(C(=O)c4ccc(F)cc4)CC3)nc21 | -8.46
39 | Cc1ccc2nc(NC(=O)C3CC3C)sc2c1 (centres unmarked) | 6.91
40 | Cn1nc(C(F)(F)F)c(C(=O)Nc2cccc(Cl)c2)c1Cl | -5.35
41 | CC1CCN(CC(=O)Nc2ccc(S(=O)(=O)N3C(C)CCCC3C)cc2)CC1 (centres unmarked) | 3.93
42 | COCCn1c(SCC(=O)NC(=O)Cc2ccccc2)nc2ccccc2c1=O | -14.2
43 | O=C1/C(=N/n2cnnc2)c2ccccc2N1Cc1ccccc1 | -12.3
44 | O=C(NCc1ccc2c(c1)OCO2)C1(S(=O)(=O)c2ccccc2)CC1 | 13.4
